# Measurements: paper PMC6919601, “Identification of Plasmodium dipeptidyl aminopeptidase allosteric inhibitors by high throughput screening” (PLoS ONE, 2019)
# The whole screen tested about 110,000 compounds, of which about 230 (0.21%) showed an effect of 50% or more. The list shows a part of the results.
# Molecular target: DPAP1 (Plasmodium falciparum, UniProt Q8IIJ9)
# Assay: primary screen, percent inhibition; read by cleavage of a fluorogenic dipeptide substrate; higher = more effect of the substance
# Design: species or system P. falciparum D10 trophozoite lysates; single well
# 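Also: 30 min substrate incubation versus DMSO and 10 µM JCP410 controls.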
# Sequence of DPAP1 (Q8IIJ9 whole entry, looked up): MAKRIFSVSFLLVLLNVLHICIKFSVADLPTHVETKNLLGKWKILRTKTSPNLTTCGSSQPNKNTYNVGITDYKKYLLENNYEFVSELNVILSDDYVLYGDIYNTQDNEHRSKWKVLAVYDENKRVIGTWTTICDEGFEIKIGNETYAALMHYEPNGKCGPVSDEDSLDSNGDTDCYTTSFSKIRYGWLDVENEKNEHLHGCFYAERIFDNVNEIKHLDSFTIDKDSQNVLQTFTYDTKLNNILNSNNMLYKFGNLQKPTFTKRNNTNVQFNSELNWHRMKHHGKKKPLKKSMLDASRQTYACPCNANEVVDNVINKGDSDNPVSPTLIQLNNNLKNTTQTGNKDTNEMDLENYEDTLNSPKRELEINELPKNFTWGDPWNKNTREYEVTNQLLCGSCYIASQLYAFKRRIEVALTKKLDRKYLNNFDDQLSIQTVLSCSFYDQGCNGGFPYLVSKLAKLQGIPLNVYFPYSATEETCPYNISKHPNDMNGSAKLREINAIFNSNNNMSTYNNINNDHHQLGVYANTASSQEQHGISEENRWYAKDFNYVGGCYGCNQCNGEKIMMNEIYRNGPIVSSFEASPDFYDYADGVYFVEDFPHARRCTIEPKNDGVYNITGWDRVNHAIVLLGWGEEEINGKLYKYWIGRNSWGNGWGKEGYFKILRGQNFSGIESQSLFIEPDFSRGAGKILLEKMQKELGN
row,Structure (SMILES),% Inhibition @ 10 uM
1,COCc1cc(C)c2c(N)c(C#N)sc2n1,2.8%
2,CCOC(=O)Nc1sc(NS(=O)(=O)c2ccc(C)cc2)nc1C,-3.75%
3,Cc1cc2oc(=O)cc(O)c2c(=O)o1,0.162%
4,Cc1cc(Cl)ccc1N(CC(=O)Nc1ccc(F)cc1)S(C)(=O)=O,-2.86%
5,COc1ccc(Nc2c(C#N)c(C)nn2-c2ccccc2)cc1,-2.2%
6,O=C(Nc1ccc(Cl)cc1)Nc1ccccc1OC(F)F,3.42%
7,CC(C)C(NC(=O)C(NC(=O)C1O[C@@H]2OC(C)(C)O[C@@H]2[C@H]2OC(C)(C)O[C@@H]12)C(C)C)C(=O)O (stereo partly shown),0.193%
8,Nc1nc(N)nc(-c2cccc(-c3nc(N)nc(N)n3)c2)n1,-9.59%
9,CC1=C(C(=O)Nc2cc(C)ccn2)C(c2ccccc2C)C2=C(O)CC(C)(C)CC2=N1 (stereo not shown),3.05%
10,CC(=O)Nc1ccc(C2Nc3ccc(C)cc3-c3cc(C)nn32)cc1 (stereo not shown),-0.116%
11,C=CC1CN2CCC1CC2C(=O)c1ccnc2ccccc12 (stereo not shown),-6.39%
12,O=C(O)CCCNS(=O)(=O)c1ccc(Cl)cc1,-6.29%
13,COc1cccc(Cn2nnc3c(O)nc(C4CCN(C(=O)c5ccccc5)CC4)nc32)c1,0.347%
14,Cc1ccccc1OCC(=O)NC1CCCCC1NC(=O)COc1ccccc1C (stereo not shown),2.42%
15,CCCNCC(=O)NC12CC3CC(CC(C3)C1)C2,-2.48%
16,CCCNC(=O)CCCN1C(=O)CSc2nc(C)cc(C)c21,-2.37%
17,COc1ccc(-c2sc(C(=O)O)cc2CC(=O)O)cc1,3.32%
18,O=C(CN1CCN(c2ccc([N+](=O)[O-])cc2)CC1)N1CCOCC1,-4.8%
19,CCN(CC)CC(C)CNC(=O)CSc1nc2nc(C)c(Cc3ccc(C)cc3)c(C)n2n1 (stereo not shown),2.17%
20,CCCCCc1ccc(-c2ccc(C(=N)NO)cc2)cc1,7.59%
21,COc1ccc(CNC(=O)C2CCC(Cn3c(=O)[nH]c4ccsc4c3=O)CC2)cc1 (stereo not shown),-3.27%
22,CCOC(=O)N1CCN(C(=O)CCCCn2c(=S)[nH]c3c([nH]c4ccc(OC)cc43)c2=O)CC1,2.74%

row,Structure (SMILES),% Inhibition @ 10 uM
1,O=c1sc2ccccc2n1CN1CCCC1,-4.91%
2,Cc1cnc(CNC(=O)Nc2ccc(C(=O)NC(CC(C)C)C(=O)NCC#N)cc2)cn1 (stereo not shown),-14.9%
3,Cc1ccccc1CN(CCCN(C)C)CCCN(C)C,1.08%
4,CC(=O)Nc1ccc(OCC(O)CN2CCN(c3cccc(C(F)(F)F)c3)CC2)cc1 (stereo not shown),-0.884%
5,Cc1cc2n(n1)SC(Nc1cccc3ccccc13)N2 (stereo not shown),0.0451%
6,O=C1CC(N2CCN(c3ccccc3Cl)CC2)C(=O)N1c1ccccc1 (stereo not shown),3.27%
7,COc1ccc(Br)cc1/C=C1\C(=O)NC(=O)N(c2ccc(C)cc2)C1=O,-2.18%
8,COCc1cc(C)nc2sc3c(c12)NC(C)n1c-3nc2ccccc21 (stereo not shown),2.37%
9,CCOc1ccc(OCCSc2nc3ccccc3s2)cc1,-3.92%
10,Cc1cc(C(=O)C(=O)NCc2ccccc2)c(C)n1-c1cccc(Cl)c1,-4.68%
11,COc1ccc(-c2c(-c3ccc(O)cc3O)n[nH]c2C)cc1OC,2.31%
12,CC1CCC(NS(=O)(=O)c2ccc(-c3cc(C(F)(F)F)no3)s2)CC1 (stereo not shown),8.44%
13,COc1ccc(N2CCN(Cc3cccc(Cl)c3)CC2)cc1,-4.61%
14,CCOc1ccc2oc(=O)cc(CN(C)CCC#N)c2c1,0.00706%
15,CC(C(=O)N1CCN(c2ccccc2F)CC1)N1C(=O)c2ccccc2C1=O (stereo not shown),0.727%
16,CCCOc1ccc(C(O)(CCC)CCN2CCCCC2)cc1 (stereo not shown),16.4%
17,O=C(O)c1cnn2c(C(F)F)cc(-c3ccc(F)cc3)nc12,-3.53%
18,COc1ccccc1/C=C1/N=C(SCC(=O)Nc2cc(C)on2)N(c2ccccc2)C1=O,1.36%
19,COc1cc(CNc2nccs2)ccc1OCC(=O)NC1CCCCC1,-3.25%
20,Cc1ccc(CNc2ccc3c(c2)CCC3)o1,-0.631%
21,COc1ccc(C(=O)OC2=C(c3ccccc3)C(=O)c3ccccc3C2=O)cc1,-3.63%
22,O=C(CCCn1nc(-c2ccccc2)c2ccccc21)NCc1cccs1,-3.08%

row,Structure (SMILES),% Inhibition @ 10 uM
1,O=C1NC(=O)/C(=C\c2ccc(OCc3ccccc3Cl)cc2)S1,-2.09%
2,c1ccc2c(CNC3C4CC5CC(C4)CC3C5)c[nH]c2c1 (stereo not shown),-2.91%
3,O=[N+]([O-])c1c(NC2CCCCC2)ccc2nonc12,0.708%
4,CC(C)C[C@H](Nc1nc(-c2cccnc2)cs1)C(=O)NCC#N,-1.41%
5,c1ccc(-c2cc3c4cccn4ccn3c2)cc1,-1.86%
6,Cc1nnc(NCCc2ccccc2)c2c1nnn2Cc1ccc(F)cc1,-1.71%
7,CC(C)NC(=O)/C(=C/c1cn(S(=O)(=O)N(C)C)c2ccccc12)NC(=O)c1ccccc1F,1.64%
8,Cc1ccc2c(c1)C(=O)OC(C(=O)Nc1nc3c(s1)CCCC3)C2 (stereo not shown),0.221%
9,O=c1oc(-c2ccco2)nc2sc3c(c12)CCCCC3,-1.5%
10,CCc1c(-c2ccccc2)n(-c2cccc(C)c2)c2nc3c(c(=O)n(C)c(=O)n3C)n12,4.32%
11,Cc1cc(C)n2nc3nc(N4CCCCC4)nc(-c4ccco4)c3c2n1,-6.5%
12,Cc1ccc(S(=O)(=O)NC(=O)CSC#N)cc1,-6.2%
13,COc1ccc(OC)c(NC(=O)CN(c2cccc(Cl)c2C)S(=O)(=O)c2ccccc2)c1,-2.83%
14,COc1cc(-c2ccc(NC(=O)c3cc4ccccc4cc3O)c(OC)c2)ccc1NC(=O)c1cc2ccccc2cc1O,-2.32%
15,Cc1ccc2sc(-c3ccc(NC(=O)c4ccccc4Cl)cc3)nc2c1,-7.87%
16,CC1CC(C)CN(C(=O)CN2CCN(Cc3ccc(Cl)cc3)C2=O)C1 (stereo not shown),-0.984%
17,CCOC(=O)C1=CN(C)C=C(C(=O)OCC)C1c1ccccc1OCc1ccccc1,-3.23%
18,Cc1n[nH]c(C)c1Sc1ccc(Cl)cc1,2.76%
19,Cc1cc(Cl)ccc1NC(=O)C12CCC(C)(C(=O)C1=O)C2(C)C (stereo not shown),1.78%
20,COc1ccc2ncc(S(=O)(=O)c3ccc(C(C)C)cc3)c(O)c2c1,-3.45%
